# Measurements: the supplement of paper PMC12217912
# The other results are listed elsewhere or left out. Sequences were assembled here from the parent chain. Values near 0.05 are background.
# B1: TEV protease; numbered along this chain (parent)
# chain: MGESLFKGPRDYNPISSSICHLTNESDGHTTSLYGIGFGPFIITNKHLFRRNNGTLVVQSLHGVFKVKDTTTLQQHLVDGRDMIIIRMPKDFPPFPQKLKFREPQREERICLVTTNFQTKSMSSMVSDTSCTFPSGDGIFWKHWIQTKDGQCGSPLVSTRDGFIVGIHSASNFTNTNNYFTSVPKNFMELLTNQEAQQWVSGWRLNADSVLWGGHKVFMVKPEEPFQPVKEATQL
# Variants of: B1
# Assay: raw area under fraction-flipped curve 0-4 h after induction (AUC4h, not background-subtracted), DNA-recorder readout of cleavage of the substrate (dimensionless); higher = more cleavage of the substrate by the protease variant
# Conditions: temperature: 34 °C; time window: 0-4 h after rhamnose induction
# Method: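 In vivo DNA recorder in E. coli TOP10(DE3) ΔrhaA at 34 °C. Each TEVp single-site mutant (parent TEVp 0) is paired with a single-site variant of the 7-mer TEVs (canonical ENLYFQ|S). The substrate sits between flexible linkers in a Bxb1-sfGFP-TEVs-SsrA fusion, so cleavage stabilises Bxb1 and speeds flipping of a recombination array, read by NGS. The value is the raw area under the fraction-flipped curve over 0-4 h after rhamnose induction (AUC4h), with ≥20 reads per time point. It is not background-subtracted; inactive controls average about 0.047.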
# 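Also: Bxb1 expression induced with 0.2% (w/v) L-rhamnose at OD600 near 0.5, cultures sampled hourly, flipped fraction per protease–substrate barcode pair counted by paired-end Illumina sequencing.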
Variant,area with substrate ENLYFQA,area with substrate ENLYFQC,area with substrate ENLYFQD,area with substrate ENLYFQE,area with substrate ENLYFQF,area with substrate ENLYFQG,area with substrate ENLYFQH,area with substrate ENLYFQI,area with substrate ENLYFQK,area with substrate ENLYFQL,area with substrate ENLYFQM,area with substrate ENLYFQN,area with substrate ENLYFQP,area with substrate ENLYFQR,area with substrate ENLYFQS,area with substrate ENLYFQT,area with substrate ENLYFQV,area with substrate ENLYFQW,area with substrate ENLYFQY,area with substrate ENLYFQQ
P134Y,0.0689,0.0849,0.0571,0.0618,0.0721,0.0724,0.0708,0.0656,0.0599,0.065,0.0671,0.0699,0.0644,0.0605,0.0772,0.0595,0.0667,0.0303,0.0591,–
D149R,0.0819,0.101,–,–,–,–,–,0.0584,–,–,0.074,–,0.0406,–,0.0795,0.0731,–,0.0512,–,–
K46N,0.0725,–,0.05,–,0.0475,0.0675,–,0.0414,0.0612,–,0.0554,–,–,0.0599,0.0626,–,–,–,0.0573,–
R160E,0.101,0.125,0.0737,–,–,–,–,0.0555,0.0629,–,0.0799,0.0913,–,0.0667,0.103,0.0714,–,0.0635,0.128,–
R160F,0.141,–,0.103,0.0713,0.0823,0.0993,0.0921,0.0637,0.0719,–,0.102,0.0748,0.0531,–,0.115,0.0644,0.0705,–,0.122,0.075
P104S,0.0596,0.0541,0.054,–,0.0539,0.0532,–,0.0386,0.0583,0.0205,0.054,0.0514,–,0.0489,0.0569,0.0553,0.0452,0.032,0.052,–
P104C,0.0804,0.101,0.0116,–,–,0.0759,–,–,0.0835,0.0753,0.0658,0.0707,0.0454,0.0584,0.0836,0.052,0.0593,0.0328,0.063,0.0627
P104N,0.0538,0.0507,–,–,–,–,–,–,–,0.0507,0.0476,0.0453,–,0.0458,0.0523,0.072,0.0518,0.0437,–,–
N172C,0.0701,0.0708,0.0549,0.0552,–,0.0771,–,–,–,0.063,0.0606,0.0658,–,0.05,0.0732,0.0704,0.0553,0.0593,0.0552,–
L112A,0.0797,0.0768,0.0656,–,0.0539,0.0861,–,0.0547,0.0475,0.0579,0.0655,0.0663,0.0653,0.0546,0.083,0.0588,–,0.0598,0.0497,–
D79N,0.0876,0.113,0.0749,–,0.0615,0.0821,–,0.0568,–,0.0506,0.0827,0.0787,–,0.0663,0.0911,0.0557,0.066,0.0665,0.0717,0.0762
H47G,0.0542,0.0605,0.0551,0.0554,0.0601,0.0598,0.0558,0.0561,0.0605,0.0552,0.0768,0.0546,0.0575,0.0648,0.0586,0.0598,0.058,0.0486,0.0558,0.0552
T176H,0.0777,–,0.0823,–,–,–,–,0.0552,–,0.0612,0.0627,–,–,0.0549,0.0748,0.0638,–,–,0.0574,0.0562
M219A,0.114,0.117,–,–,0.0576,–,0.0767,0.0489,–,0.0613,0.0508,–,0.0265,0.068,0.0967,0.0489,0.0589,–,0.0586,–
G136A,0.0881,0.105,–,–,0.0611,0.089,0.0793,–,0.0652,0.0798,0.0843,0.0602,–,0.0624,0.0956,–,0.0264,–,–,–
H76C,0.121,0.127,–,–,0.0856,–,0.0735,0.0583,0.0682,0.06,0.0905,0.0942,–,0.0629,0.112,0.0704,0.0542,0.0709,0.0515,0.0728
N116C,0.0611,0.0943,–,–,0.0734,–,–,0.0548,0.0527,0.059,0.0891,0.0783,0.0455,–,0.0982,0.0487,–,–,0.116,–
S32V,0.0831,0.119,–,–,–,0.0881,0.0699,0.0625,0.0635,0.0586,0.0768,0.0984,–,0.0545,0.0929,0.0689,0.0543,0.0527,0.0708,–
V217W,0.057,0.0673,–,–,–,0.0427,0.0578,0.0509,–,0.0543,0.0449,0.0699,0.0588,0.0611,0.0616,–,0.0474,–,–,–
K120N,0.1,0.0845,–,0.0653,–,–,0.0663,0.0538,–,0.0447,–,0.0716,–,0.056,0.0966,0.0635,–,–,0.0825,–
M88F,0.0858,0.0445,–,–,0.067,0.0934,0.0612,–,–,0.0474,0.0625,0.0647,–,0.0537,0.0795,–,0.07,–,–,0.047
Y34L,0.0882,0.113,0.067,0.0641,–,0.0977,–,0.0664,0.0624,0.0537,–,0.0669,–,0.0707,0.101,0.0604,0.0993,0.0516,0.0621,–
N24A,0.0813,0.0694,0.0736,–,0.0636,0.0623,0.0805,0.0628,0.0578,0.0593,0.0576,0.0714,0.059,0.061,0.0805,0.0678,0.0604,–,0.071,–
H21I,0.0804,0.0916,0.0696,–,0.0852,0.0744,0.0832,0.0617,0.0606,0.0588,0.0854,0.0712,0.0627,0.0609,0.0929,0.0443,0.0624,0.0624,0.0702,0.0459
H21F,0.0956,0.1,0.0705,0.0517,0.0853,0.14,0.0666,0.0748,–,0.0636,0.0822,0.0603,0.0561,0.0562,0.0984,–,–,0.0843,0.0798,–
